Out of some 44,000 compounds screened, about 340 (0.77%) were called active. Not shown: some 5% with an inconclusive outcome. The call rests on the fitted dose curve; in most records, active means well fitted inhibition curve with a large enough effect; inconclusive means small, poorly fitted or top-dose-only effect; inactive means flat fitted curve, though single readings scatter. This is one part of the list.
assay: Acumen qHTS Assay for Inhibitors of the mTORC1 Signaling Pathway in MEF (Tsc2-/-, p53-/-) Cells: Sytravon; details: phospho-rpS6 immunofluorescence/PI, 24 h; series mostly up to 38.3 µM; activity change, negative = inhibition: at the top concentration;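 further: plate controls were DMSO for no effect and rapamycin for full effect; nearly all actives have a fitted effect of over 50% in size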
Method in brief: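 Tsc2-/-, p53-/- mouse embryonic fibroblasts (empty-vector line) exposed to compound 24 hrs at 37 C, fixed, immunostained for phospho-rpS6 and counterstained with propidium iodide. Acumen laser scanning gives % positive cells from Alexa 488/PI ratio, thresholded using 7.5 nM rapamycin; PI count gives viability.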

Activity change, negative = inhibition, inactive:
CCOC(=O)c1c(C)[nH]c(C)c1S(=O)(=O)N(C)CC(=O)NCc1ccc(Cl)cc1 -8.65%
Cc1ccc(-c2nc3c4ccccc4n(CC(=O)NCc4ccc(F)cc4)c(=O)n3n2)cc1 0.711%
CCc1nn(CC(=O)NCCCN(CC)CC)c(=O)c2cc3occc3n12 -2.82%
COc1cccc(CNC(=O)CN2C(=O)N(c3ccc(C)cc3C)S(=O)(=O)c3ccccc32)c1OC -2.91%
Cn1c(SCC(=O)Nc2nc3ccccc3s2)ncc(C(=O)Nc2ccccc2)c1=O -3.4%
COc1ccc(C)cc1-n1cnc2cc(C(=O)NC3CCCCCC3)ccc21 -13.5%
O=C1COc2cc(S(=O)(=O)CCC(=O)NC3CCCCC3)c(Cl)cc2N1 -3.24%
Cc1ccc2onc(CNC(=O)NCc3ccc(Cl)cc3)c2c1 3.74%
CCOc1ccc(CCNC(=O)CCCc2nnc3n(CC)c(=O)c4sccc4n23)cc1 1.96%
CCSc1ncc(Cl)c(C(=O)Nc2c(C(=O)Nc3ccccc3)oc3ccccc23)n1 2.49%
O=C(CSc1nccn1-c1cccc(Cl)c1)Nc1cccc2ccccc12 -5.34%
COc1cccc(C(=O)Nc2cccc(-c3nc4ncccn4c3C)c2)c1 -17.8%
O=C(O)c1c(-c2ccccc2)oc2ccc(OCc3c(F)cccc3Cl)cc12 2.54%
COc1ccc(-c2nc3cc(C)ccn3c2NC(=O)c2cccc(F)c2)cc1 1.63%
COc1ccc(CCNC(=O)C2CCN(Cc3nc(-c4ccc(OC)c(OC)c4)oc3C)CC2)cc1OC -12.1%
Cc1ccc(/C=C(\C#N)C(=O)Nc2cccc(Cl)c2)o1 2.29%
O=C(NCCn1cc(SCc2ccc(Br)cc2)c2ccccc21)c1cccs1 0.157%
CCC1Oc2ccccc2N(CC(=O)NCc2cc(OC)ccc2OC)C1=O (stereo not given) 6%
CCCC(=O)N1CCc2cc(OC)c(OC)cc2C1COc1ccc(C(=O)OC)cc1 (stereo not given) -8.37%
CCN(CC)C(=O)Cn1c(=O)n(CC2CCC(C(=O)NC)CC2)c(=O)c2sccc21 (stereo not given) -2.49%
O=C(CSc1nc(-c2ccccc2F)nc2cc(=O)[nH]n12)Nc1cccc(C(F)(F)F)c1 -3.94%
CCOc1ccccc1-c1nc(Cn2c(=O)cc(C)c3c(C)nn(-c4ccccc4)c32)c(C)o1 -2.89%
Cc1cc(C)cc(OCCCn2c(-c3ccc(Cl)cc3)nc3ccccc3c2=O)c1 9.86%
COC(=O)c1sc(-c2ccccc2)cc1NC(=O)Nc1ccc(F)cc1 -1.49%
COc1ccc(C(CC(=O)NCc2ccc(Cl)cc2)N2Cc3ccccc3C2=O)cc1OC (stereo not given) -5.28%
COc1ccc(-c2cn3c(n2)sc2cc(C(=O)Nc4ccc(C)c(Cl)c4)ccc23)cc1 -1.74%
CCOc1ccc(-c2nnc(SCC(=O)Nc3ccc(C)cc3C)o2)cc1 -6.32%
COC(=O)c1ccc(NC(=O)n2ncc3c(C)cccc32)cc1 -15.7%
CCOC(=O)c1[nH]c2c(c1Cc1ccccc1C)C(=O)CC(c1ccccc1)C2 (stereo not given) -0.529%
CCc1ccc(NC(=O)c2cnn(-c3c(C)cccc3C)c2C2CCN(C(=O)OC(C)(C)C)CC2)cc1 -9.71%
Cc1c(C(=O)N2CCCCCC2)c(S(=O)(=O)Nc2cccc(C#N)c2)c(C)n1C -0.934%
Cc1cc(=O)[nH]c2nnc(SCc3ccccc3F)n12 1.98%
CC1(C)N=C(SCc2ccc(Cl)cc2)c2ccccc2N1 -11.1%
O=C(NCCc1ccccc1)C(=O)NCC(c1cccs1)S(=O)(=O)c1cccs1 (stereo not given) -10.8%
Cc1ccc(S(=O)(=O)N2CCN(Cc3cc(=O)n4nc(-c5ccccc5Cl)sc4n3)CC2)cc1 6.65%
Cn1c(=O)cc(SCC(=O)NCc2ccc(F)cc2)c2cc(Cl)ccc21 0.664%
CCOC(=O)c1c(C)[nH]c(C)c1S(=O)(=O)N1CCC(C(=O)Nc2ccccc2CC)CC1 -5.76%
CCc1ccc(-n2nc(CO)c(C(=O)NCc3ccccc3Cl)n2)cc1 2.23%
Cn1c(=O)c(=O)n(C)c2cc(NS(=O)(=O)c3ccc(Br)cc3)c(Cl)cc21 4.65%
COc1ccc(NC(=O)N2CCCn3nc(C)cc32)cc1OC -3.24%
CCCCNC(=O)CSc1nc2cc3c(cc2c(=O)n1Cc1ccc(C(=O)NCCc2ccc(OC)c(OC)c2)cc1)OCO3 0.724%
CCn1c(C(=O)NCc2ccccc2Cl)cc2sc(Cl)cc21 -7.68%
CC(Oc1ccccc1)C(=O)Nc1ccc(C(=O)OCc2cc(=O)n3nc(C4CC4)sc3n2)cc1 (stereo not given) 0.77%
O=C(CCC(=O)N1Cc2ccccc2Oc2ncccc21)NCc1cccc(Cl)c1 0.931%
Cc1cc2[nH]c(=O)c(=O)[nH]c2cc1S(=O)(=O)N1CCN(c2ccccc2)CC1 0.531%
COc1ccc(Cc2nc3ccccc3n2Cc2ccccc2C)cc1 -7.89%
O=C(NCc1cccc(Cl)c1)c1ccc(NC(=O)N2CCSc3ccccc32)cc1 -1.32%
COc1ccc(-c2cc3ccc(O)c(CN4CCCC(C)C4)c3oc2=O)cc1OC (stereo not given) -3.65%
Cc1ccc(Cc2c(C)nc3nc(SCC(=O)NCCC(C)C)nn3c2C)cc1 4.06%
COc1ccc(NC(=O)Cn2c(=O)n(-c3ccc(C)cc3)c(=O)c3c2c2cc(C)ccc2n3C)cc1 -8.25%
Cc1nn(C)c(C)c1S(=O)(=O)N(CC(=O)Nc1ccc(F)cc1F)c1ccc(C(C)C)cc1 -1.7%
CC1CCN(c2nc3ccc(C(=O)NC(C)C)cc3s2)CC1 1.32%
Cc1ccc(CN2C(=O)SC(Nc3ccc(Cl)cc3)C2=O)cc1 (stereo not given) 1.15%
O=C(Nc1onc2c1CCCC2)c1ccccc1 1.08%
O=C(CN1C(=O)CCn2nc(-c3ccccc3)cc21)NCc1ccccc1 -5.36%
COc1cccc(CNC(=O)C(=O)NCC(c2ccco2)S(=O)(=O)c2ccccc2)c1 (stereo not given) -0.379%
COc1ccccc1CNC(=O)c1cnc2sc(N3CCCCC3)nn2c1=O -2.89%
COc1cccc(C2C(C(=O)Nc3ccccc3OC)=C(C)Nc3nc(-c4ccco4)nn32)c1 (stereo not given) -12.6%
COc1ccc(-n2nc(C(=O)NCCc3ccc(OC)c(OC)c3)c3c4ccccc4n(C)c3c2=O)cc1 -11.8%
CCC(Sc1nnc2c3ccccc3n(CC)c2n1)C(=O)Nc1ccc(NC(C)=O)cc1 (stereo not given) 4.05%
Cc1ccccc1-c1nc(CS(=O)(=O)CC(=O)NCCCc2ccccc2)c(C)o1 -6.31%
CCCOc1cccc(C2c3c(oc4ccc(F)cc4c3=O)C(=O)N2CCc2ccc(OC)cc2)c1 (stereo not given) 5.23%
COc1cccc(CNC(=O)c2sc3ncccc3c2-n2c(C)ccc2C)c1OC -3.27%
COc1ccc(-c2noc(CSc3nc4ccc(C)cc4[nH]3)n2)cc1 2.06%
O=C(Cn1nc(Cc2cccnc2)c2ccccc2c1=O)Nc1ccc(F)c(Cl)c1 -2.13%
CCC(C(=O)Nc1cc(C(F)(F)F)ccc1Cl)n1nc(C)c2sc3ccccc3c2c1=O (stereo not given) -1.2%
COc1ccccc1CNC(=O)Cn1nc(C)n2cccc2c1=O -2.12%
O=C(Cn1cnc2onc(-c3ccc(F)cc3)c2c1=O)N1CCN(c2ccc(F)cc2)CC1 -0.371%
CCc1cccc(NC(=O)CSc2ncc3c(n2)-c2cc(Cl)ccc2N(C)S3(=O)=O)c1 2.78%
COc1ccccc1CNC(=O)CCn1c(=O)c2ccccc2n(CC(=O)Nc2cc(Cl)ccc2C)c1=O -24.3%
O=c1cc(COc2ccccc2Cl)nc2scc(-c3ccccc3)n12 1.86%
Cc1ccc(C2NC(=O)c3n[nH]c(-c4cccs4)c32)cc1 (stereo not given) 2.46%
Cc1ccc(Cl)cc1N1CCN(C(=O)Cn2nc(C)c3sc4ccccc4c3c2=O)CC1 -0.654%
CCC(C)NC(=O)CCSc1nc(-c2ccc3c(c2)OCO3)cc(C(F)(F)F)n1 (stereo not given) -6.9%
COc1ccc(NC(=O)CCS(=O)(=O)c2nc(-c3ccc4c(c3)OCO4)cc(C(F)(F)F)n2)cc1OC -0.0245%
O=C(Nc1cccc(C(=O)OCc2cc(=O)n3c4c(sc3n2)CCCC4)c1)c1cccc(F)c1 0%
Cc1ccc(NC(=O)CSc2nc3ccc(NC(=O)c4ccco4)cc3s2)cc1 0%
COc1ccc(C2CC(=O)c3cc(-c4nc(-c5cccc([N+](=O)[O-])c5)cs4)c(=O)n(-c4cccc(C)c4)c3C2)cc1 (stereo not given) 0.464%
COC(=O)c1c(NC(=O)Cc2coc3cc(C)cc(C)c23)sc2c1CCC2 -2.16%
COc1cc(C(=O)NCc2ccc3c(c2)CCN3C(=O)c2ccc(Cl)cc2)cc(OC)c1OC 0.181%
Cc1ccc(NC(=O)CSc2nc(=O)n(Cc3ccccn3)c3c2CCC3)cc1F 0.327%
COCCNC(=O)c1c(NC(=O)c2cc(=O)c3cc(C)cc(C)c3o2)sc2c1CCCC2 2.15%
O=C(Nc1ccccc1Cl)N1CCC2(CC1)Oc1ccccc1C(=O)N2Cc1ccc(F)cc1 1.21%
CCc1ccc(NC(=O)c2cnc3c(-c4ccccc4)c(C)nn3c2C)cc1 -0.0154%
CC(=O)c1ccc(NC(=O)c2ccc(-c3nc(CSc4ccc(C)cc4)c(C)o3)cc2)cc1 -2.66%
COc1cccc(Cn2c(C)c(CNCc3cccc(C)c3)c(C(=O)O)c2C)c1 -1.81%
Cc1cccc(NC(=O)CSc2nc(-c3cccs3)nc3cc(=O)[nH]n23)c1 -7.77%
O=C(CSc1nc2ccccc2nc1Cc1ccccc1)N1CCc2ccccc21 7.02%
Cc1cccc(-c2nc3c4ccccc4nc(N4CCN(c5cccc(Cl)c5)CC4)n3n2)c1 1.34%
COc1ccc(-c2c3c(nc4sc(C(=O)Nc5cccc(OC)c5)c(N)c24)CC(C)(C)CC3=O)cc1 5.25%
Cc1cc(C)n2nc(CNS(=O)(=O)c3cccc(Cl)c3)nc2n1 -1.1%
Cc1cc(C(=O)N2CCN(c3ccccc3F)CC2)c2c(C)nn(-c3ccccc3)c2n1 -0.0544%
Cc1cc(C)c2oc(-c3cccc(NC(=O)c4cccc(F)c4)c3C)nc2c1 0.309%
CCC(C)NC(=O)c1ccc(CNS(=O)(=O)c2ccc3c(c2)C(C)(C)C(=O)N3C)cc1 (stereo not given) -3.08%
CCc1ccc(S(=O)(=O)Nc2ccc3c(c2)sc(=O)n3C)cc1 3.2%

Reference: PubChem BioAssay AID493208 (National Center for Advancing Translational Sciences (NCATS), 2011)
